Test results from paper PMC4336329 (PLoS ONE, 2015).
Among all 310,000 compounds or so, about 14,000 (4.5%) showed an effect of 50% or more. Effects have a minus sign here. The list shows a part of the results.

biological target: human ether-à-go-go-related gene (hERG) potassium channel (human, UniProt Q12809); test: primary screen, population patch clamp on CHO cells stably expressing hERG
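Further: peak tail current of the secondary pulse compared with the same well before compound.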

Chain of human ether-à-go-go-related gene (hERG) potassium channel (Q12809 whole entry, looked up): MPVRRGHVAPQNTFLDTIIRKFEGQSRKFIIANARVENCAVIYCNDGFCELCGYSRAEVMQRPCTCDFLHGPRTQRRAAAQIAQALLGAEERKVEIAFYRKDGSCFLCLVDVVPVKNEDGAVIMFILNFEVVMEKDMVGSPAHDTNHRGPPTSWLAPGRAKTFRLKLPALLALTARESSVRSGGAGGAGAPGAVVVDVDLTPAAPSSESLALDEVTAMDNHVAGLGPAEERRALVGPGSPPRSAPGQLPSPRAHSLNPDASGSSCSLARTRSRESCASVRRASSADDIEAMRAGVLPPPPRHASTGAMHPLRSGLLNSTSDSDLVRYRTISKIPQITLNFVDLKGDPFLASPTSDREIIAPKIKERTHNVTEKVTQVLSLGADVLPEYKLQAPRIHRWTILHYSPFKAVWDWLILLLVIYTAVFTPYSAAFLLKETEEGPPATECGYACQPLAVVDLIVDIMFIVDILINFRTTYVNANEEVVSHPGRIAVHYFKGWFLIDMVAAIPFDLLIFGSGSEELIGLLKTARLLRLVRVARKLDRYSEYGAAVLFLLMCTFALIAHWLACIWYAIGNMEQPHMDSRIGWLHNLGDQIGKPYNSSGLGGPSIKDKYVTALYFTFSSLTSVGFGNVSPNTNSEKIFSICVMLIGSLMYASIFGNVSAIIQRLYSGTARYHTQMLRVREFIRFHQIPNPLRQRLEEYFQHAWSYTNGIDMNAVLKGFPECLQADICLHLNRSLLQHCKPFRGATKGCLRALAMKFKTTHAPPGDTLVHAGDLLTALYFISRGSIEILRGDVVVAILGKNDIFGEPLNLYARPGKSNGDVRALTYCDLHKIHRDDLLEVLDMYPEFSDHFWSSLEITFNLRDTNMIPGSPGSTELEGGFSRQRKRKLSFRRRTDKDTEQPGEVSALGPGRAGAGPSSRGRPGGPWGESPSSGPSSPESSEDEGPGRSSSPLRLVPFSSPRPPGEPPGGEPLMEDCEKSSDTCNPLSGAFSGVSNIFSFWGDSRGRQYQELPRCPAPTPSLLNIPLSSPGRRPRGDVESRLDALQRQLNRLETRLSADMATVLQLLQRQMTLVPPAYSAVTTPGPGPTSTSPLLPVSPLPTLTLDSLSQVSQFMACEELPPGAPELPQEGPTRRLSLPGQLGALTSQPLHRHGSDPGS

Row | Structure (SMILES) | hERG current change (%, negative = inhibition) at 10uM
1 | CCC1(c2ccccc2)NC(=O)N(CC(=O)N2CC(=O)Nc3ccccc32)C1=O (stereo not drawn) | 7.97%
2 | O=S(=O)(c1cc(Cl)ccc1Cl)N1CCc2ccccc21 | -0.504%
3 | O=C(c1ccc2c(c1)N(Cc1ccccc1)CCS2)N1CCOCC1 | -29.7%
4 | Cc1ccc(C(=O)Nc2ccccc2C(=O)Nc2ccccn2)cc1Cl | 6.44%
5 | N#CCP(=S)(c1ccccc1)c1ccccc1 | -2.81%
6 | COc1ccc(/C=N/NC(=O)c2ccc(O)cc2)cc1CN1CCCc2ccccc21 | 0.817%
7 | O=C(CC(c1ccccc1)c1cc(Cl)ccc1O)NCCCN1CCOCC1 (stereo not drawn) | -50%
8 | COc1cc(NC(=O)C2CCCCC2)c2ncccc2c1 | -5.19%
9 | C=CC[N@@+]12CC[C@]34c5ccccc5N5/C=C6\C7N(/C=C(\C53)[C@@H](C[C@@H]41)/C(=C/CO)C2)c1ccccc1[C@@]71CC[N@@+]2(CC=C)C/C(=C\CO)[C@@H]6C[C@@H]12.[Cl-] (stereo partly drawn) | 11.3%
10 | CC(C)c1nc2ccccc2n1CC(O)COC1CCCCC1 (stereo not drawn) | 7.06%
11 | COc1ccccc1-n1c(SCC(=O)Nc2ccc3c(c2)OCO3)nc2c(c1=O)SCC2 | -4.31%
12 | Nc1ccc(C(=O)OC2CCOC2=O)cc1[N+](=O)[O-] (stereo not drawn) | 0.397%
13 | Cc1ccc(S(=O)(=O)NNC(=S)NC(C)(C)C)cc1 | -19%
14 | O=C(NNC(=O)C1CC1)c1cc2cc3ccccc3nc2s1 | 11.4%
15 | CCOC(=O)c1ccc(Nc2ncnc3c2cnn3C)cc1 | -8.65%
16 | Cn1c(=O)c2c(nc(Sc3ccccc3N)n2C)n(C)c1=O | 11.4%
17 | CCc1nnc(NC(=O)c2ccc(C)o2)s1 | -3.77%
18 | CCCc1cc(=O)oc2c(CN3CCCC3)c(O)ccc12 | -31.8%
19 | COc1cc(OC)c(C2Oc3nc(SC)nnc3-c3ccccc3N2C(C)=O)cc1OC (stereo not drawn) | -19.5%
20 | O=C(COc1ccc(S(=O)(=O)Nc2ccccc2)cc1)N1CCOCC1 | 7.29%
21 | COc1ccccc1CCNC(=O)C(=O)Nc1cc2c3c(c1)C(C)C(=O)N3CCC2 (stereo not drawn) | -26.4%
22 | CCOCCn1c(-c2ccccc2)nc2ccccc21 | 2.1%
23 | Cc1cc(NC(=O)C(C)SCC(=O)Nc2ccc(Br)cc2Br)no1 (stereo not drawn) | -20.6%
24 | COc1cc(C(=O)O)ccc1O | 37.3%
